Screen size: about 310,000 compounds; about 2,200 (0.71%) showed an effect of 50% or more. The effect is printed as a negative number. This is one part of the list.
biological target: human ether-à-go-go-related gene (hERG) potassium channel (human, UniProt Q12809); experiment: primary screen, population patch clamp on CHO cells stably expressing hERG
Sequence (Q12809 whole entry, looked up): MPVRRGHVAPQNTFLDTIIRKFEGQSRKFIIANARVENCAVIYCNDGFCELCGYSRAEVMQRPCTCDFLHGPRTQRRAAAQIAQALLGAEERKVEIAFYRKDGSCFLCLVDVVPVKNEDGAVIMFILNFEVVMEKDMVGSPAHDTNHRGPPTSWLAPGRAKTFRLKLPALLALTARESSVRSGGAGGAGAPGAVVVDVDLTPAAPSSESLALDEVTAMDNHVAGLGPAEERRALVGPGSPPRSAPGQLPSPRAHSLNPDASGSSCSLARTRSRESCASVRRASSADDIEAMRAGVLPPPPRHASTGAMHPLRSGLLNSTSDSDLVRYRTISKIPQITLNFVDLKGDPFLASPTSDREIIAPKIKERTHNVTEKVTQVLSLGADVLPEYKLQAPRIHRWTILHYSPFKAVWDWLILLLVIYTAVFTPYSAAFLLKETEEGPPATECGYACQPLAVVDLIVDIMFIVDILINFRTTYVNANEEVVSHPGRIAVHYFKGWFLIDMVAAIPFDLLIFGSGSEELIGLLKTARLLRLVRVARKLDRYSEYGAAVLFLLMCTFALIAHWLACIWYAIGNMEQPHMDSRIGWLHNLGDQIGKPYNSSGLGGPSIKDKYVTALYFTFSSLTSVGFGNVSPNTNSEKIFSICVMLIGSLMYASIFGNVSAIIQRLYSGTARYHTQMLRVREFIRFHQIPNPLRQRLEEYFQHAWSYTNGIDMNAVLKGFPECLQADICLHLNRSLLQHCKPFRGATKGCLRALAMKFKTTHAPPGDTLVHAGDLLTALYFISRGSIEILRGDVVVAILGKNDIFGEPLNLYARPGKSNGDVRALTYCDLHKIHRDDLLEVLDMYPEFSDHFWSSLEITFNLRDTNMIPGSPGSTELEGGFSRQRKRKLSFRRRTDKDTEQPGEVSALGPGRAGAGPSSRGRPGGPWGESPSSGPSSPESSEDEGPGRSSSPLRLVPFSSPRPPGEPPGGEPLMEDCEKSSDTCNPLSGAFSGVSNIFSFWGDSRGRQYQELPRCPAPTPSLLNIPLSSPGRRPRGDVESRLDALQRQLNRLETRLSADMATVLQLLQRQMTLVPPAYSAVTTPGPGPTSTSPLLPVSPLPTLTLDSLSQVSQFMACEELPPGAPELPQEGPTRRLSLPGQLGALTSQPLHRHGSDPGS

SMILES | hERG current change (%, negative = inhibition) at 1uM [%]
CC(C)(C)c1ccc(C(=O)CC(=O)c2cc(Cl)ccc2O)cc1 | -16.3
COc1ccc(S(=O)(=O)N(C)c2ccc(C(=O)NCc3ccccn3)cc2)cc1 | 8.53
Cc1ccc(NC(=O)CCn2ccc([N+](=O)[O-])n2)nc1 | 4.02
Cn1c(SCC(=O)N2CCCC2)nc2ccccc2c1=O | 0.705
CSc1cccc(NS(=O)(=O)c2ccc(-c3coc(C)n3)cc2)c1 | 21.5
Cc1ccc(C(=O)N2CCCC(C(=O)c3ccc(Cl)cc3C)C2)cn1 (stereo not drawn) | 8.49
Cc1cc2cc(CNS(=O)(=O)c3ccc4ccccc4c3)ccc2n1C | 17.4
O=C(Nc1ccc(Cl)cc1)Nc1nccs1 | -15.9
CCC(C)NS(=O)(=O)c1ccc(NC(C)=O)cc1 (stereo not drawn) | 11.2
Cc1ccc(/C=C/C(=O)NCc2ccc3c(c2)OCO3)o1 | 6.44
CCN1C(=O)NC(c2ccc(Cl)cc2)C2=C1CCCC2=O (stereo not drawn) | 10.5
CC(=O)Nc1ccc(S(=O)(=O)NCCc2cc3c(C)ccc(C)c3[nH]c2=O)cc1 | 6.89
COc1ccc(NC(=O)c2cc3nc(-c4ccccc4)cc(-c4ccccc4)n3n2)c(OC)c1 | 10.4
Cc1noc(C)c1COc1ccc(C(=O)NCCc2ccccn2)cc1 | 21.1
CCOC(=O)c1sc2nc(CSCC(=O)OCc3ccc(C(=O)OC)o3)[nH]c(=O)c2c1C | 12.9
Cc1ccc(S(=O)(=O)N2CCN(C(=O)c3ccc(OCc4c(C)noc4C)cc3)CC2)cc1 | -1.67
NS(=O)(=O)c1cccc(NC(=O)COC(=O)Cn2cnc3ccccc32)c1 | 3.84
COc1ccc(C(=O)Nc2ncc3c(n2)-c2ccccc2CC3)cc1 | 2.21
O=C(c1ccc(NC(=S)Nc2ccc(Cl)c(Cl)c2)cc1)N1CCCC1 | 1.69
O=C(NCCOc1ccccc1Cl)c1cccc2c1C(=O)c1ccc(Cl)cc1S2(=O)=O | 6.99
COc1ccc(-n2nc(C(C)=O)c(=O)[nH]c2=O)cc1 | 14.9
CCCCN(C(=O)c1ccc(C)cc1)c1c(N)n(CCC)c(=O)[nH]c1=O | 17.2
CC(=O)OC1CC[C@]2(C#N)[C@H]3CC[C@]4(C)[C@H](C5C=CC(=O)O5)CCC4(O)C3CCC2(O)C1 (stereo partly drawn) | 12.9

SMILES | hERG current change (%, negative = inhibition) at 1uM [%]
CCOC(=O)N/N=C\c1ccc(-c2cccc(C(F)(F)F)c2)o1 | 5.97
CSc1ccccc1NC(=O)CN(C)Cc1c(O)ccc2ccccc12 | 15.3
CCOP(=O)(OCC)C(Nc1cccc(C(F)(F)F)c1)c1ccc(C)cc1 (stereo not drawn) | 13.1
COc1ccc(-c2nc3ccccc3o2)cc1OC | 5.06
O=C(O)c1[nH]c2ccccc2c1CC(=O)N1CCN(c2ccccc2)CC1 | 14.7
COC(=O)c1cccc(CSc2nc(-c3ccccc3)c(C#N)c(=O)[nH]2)c1 | 12.7
Cc1oc(-c2cc(Cl)cc(Cl)c2)cc1C(=O)NCCc1ccccc1 | 14.7
COc1ccc(NC2CCCN(C(=O)c3ccc(CSC)o3)C2)cc1OC (stereo not drawn) | 5.39
C=CCn1c(=NC(=O)C2CC2)sc2cc(NC(C)=O)ccc21 | 7.85
Cc1cc(F)ccc1S(=O)(=O)Nc1ccc(C(=O)N2CCCCCC2)cc1 | 6.18
CC(C)(C)/C(Cn1cncn1)=N\OC(=O)Nc1ccc(Cl)cc1 | 7.81
O=C(CSc1ccc(Cl)cc1)NNC(=O)c1ccco1 | 6.69
O=C(COC(=O)c1ccccc1Br)Nc1ccc(F)cc1 | 16.6
O=C(NC(N1CCOCC1)C(Cl)(Cl)Cl)c1cc([N+](=O)[O-])cc([N+](=O)[O-])c1 (stereo not drawn) | 5.15
COc1ccc(CNC(=O)CN(Cc2ccc(C)cc2)C(=O)c2csnn2)cc1 | -10.4
COc1ccc(N2CCN(CCNC(=O)CCS(=O)(=O)c3cccc4nsnc34)CC2)cc1 | 4.59
COc1ccc(CCNC(=O)C(=O)NCC2OCCN2S(=O)(=O)c2ccccc2)cc1OC (stereo not drawn) | 7.89
Cc1nc2oc3ccc(F)cc3c(=O)c2cc1C(=O)NC(C)(C)C | 17
CCN(CC)S(=O)(=O)c1ccc(C)c(NC(=O)COC(=O)CN2C(=O)NC(C)(C)C2=O)c1 | 2.92
CCOC(=O)C1CCN(C(=O)C2CCN(S(=O)(=O)CC)CC2)CC1 | 9.44
CCOc1cc(/C=N\n2nnnc2N)ccc1O | 10.1
CCCCN(CC)C(=O)c1ccc2c(c1)OCO2 | 12.8
